We go through 20 sequences from publication PMC5700166.

The entries are a selection whose mix differs from that of the whole data set. For some assays here: The list includes weakly bound sequences.

Assay in all cases: protein-binding microarray (PBM)
Details in all cases: PBM: ~300 nM protein, 6 mM HEPES pH 7.8, 80 mM KCl, 0.5 mM EDTA, 0.5 mM EGTA, 6% glycerol, 35 ng/ul poly-dIdC, 1% milk, 1 h, room temperature; Ap Aiptasia and Nv Nematostella (sea anemones) / Co Capsaspora / Aq Amphimedon (sponge) / Dm Drosophila / Hu human; RHD is the Rel homology domain; high values mean tight binding; most listed sequences are background and not binding sites; double strand, one strand shown

One test concerns the target T1, GST-Ap-NF-kB RHD (UniProt A0A913YAJ5).
T1 sequence: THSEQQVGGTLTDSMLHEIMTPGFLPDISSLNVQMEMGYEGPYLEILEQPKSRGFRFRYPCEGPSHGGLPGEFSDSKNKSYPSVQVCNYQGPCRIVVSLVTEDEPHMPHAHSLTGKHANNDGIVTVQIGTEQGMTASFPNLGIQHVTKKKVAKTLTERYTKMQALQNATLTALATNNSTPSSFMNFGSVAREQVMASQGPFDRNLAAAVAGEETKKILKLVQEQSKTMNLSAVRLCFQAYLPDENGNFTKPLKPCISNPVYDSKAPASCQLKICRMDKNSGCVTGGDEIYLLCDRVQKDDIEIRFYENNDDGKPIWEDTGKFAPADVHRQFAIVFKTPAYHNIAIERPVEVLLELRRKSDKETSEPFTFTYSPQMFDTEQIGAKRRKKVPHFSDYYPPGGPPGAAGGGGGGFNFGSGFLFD

Another test has as its target T2, GST-Co-NF-kB (UniProt F1ARL5).
T2 sequence: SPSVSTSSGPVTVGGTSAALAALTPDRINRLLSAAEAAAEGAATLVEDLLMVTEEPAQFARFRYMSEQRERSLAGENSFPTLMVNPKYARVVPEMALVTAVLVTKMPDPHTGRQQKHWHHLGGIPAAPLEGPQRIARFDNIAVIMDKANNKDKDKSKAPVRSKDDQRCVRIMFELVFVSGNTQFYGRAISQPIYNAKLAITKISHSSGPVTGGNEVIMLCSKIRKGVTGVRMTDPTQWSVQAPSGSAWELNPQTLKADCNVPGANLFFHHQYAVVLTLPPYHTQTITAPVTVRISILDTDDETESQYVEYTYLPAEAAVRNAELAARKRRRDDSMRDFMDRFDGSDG

The target of test [1] is T3, GST-Nv-NF-kB (Cys allele) (UniProt E5G601).
T3 sequence: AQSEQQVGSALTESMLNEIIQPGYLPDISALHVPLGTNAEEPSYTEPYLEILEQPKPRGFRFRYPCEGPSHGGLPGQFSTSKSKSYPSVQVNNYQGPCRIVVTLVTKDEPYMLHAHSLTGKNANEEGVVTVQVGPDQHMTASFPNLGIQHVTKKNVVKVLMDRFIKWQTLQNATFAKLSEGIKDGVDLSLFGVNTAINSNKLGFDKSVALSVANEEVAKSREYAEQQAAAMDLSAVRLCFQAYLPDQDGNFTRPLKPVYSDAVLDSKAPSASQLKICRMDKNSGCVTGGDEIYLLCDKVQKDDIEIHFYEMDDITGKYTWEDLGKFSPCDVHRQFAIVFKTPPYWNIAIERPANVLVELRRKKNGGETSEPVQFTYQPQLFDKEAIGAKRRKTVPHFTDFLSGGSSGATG

The next test concerns the target T4, GST-Dm-Relish (UniProt Q94527).
T4 sequence: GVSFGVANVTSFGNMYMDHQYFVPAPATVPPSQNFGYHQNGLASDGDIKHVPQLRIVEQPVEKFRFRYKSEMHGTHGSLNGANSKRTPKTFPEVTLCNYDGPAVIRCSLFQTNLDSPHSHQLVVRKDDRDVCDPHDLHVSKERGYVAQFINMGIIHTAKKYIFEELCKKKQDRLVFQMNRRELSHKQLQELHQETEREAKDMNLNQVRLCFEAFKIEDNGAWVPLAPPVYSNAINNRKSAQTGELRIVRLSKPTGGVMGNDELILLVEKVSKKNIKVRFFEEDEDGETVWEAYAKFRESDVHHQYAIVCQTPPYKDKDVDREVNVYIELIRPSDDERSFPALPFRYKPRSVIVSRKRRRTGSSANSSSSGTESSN

On to “CCGATTAACATCAAGGAATTTTCTGATGTTAATCGGGTCTTGATTCGCTTGACGCTGCTG”, for which the binding signal with GST-Ap-NF-kB RHD is 0.246 z-score; with GST-Co-NF-kB, -0.11 z-score.

“CCGATTAACATCAGATACCCCCCTGATGTTAATCGGGTCTTGATTCGCTTGACGCTGCTG”: the values for the binding signal with GST-Ap-NF-kB RHD and in the test with GST-Co-NF-kB were 6.55 z-score and 4.8 z-score, respectively.

In the case of “CCGATTAACATCAAATGTTCCCCTGATGTTAATCGGGTCTTGATTCGCTTGACGCTGCTG”, the binding signal came to 5.58 z-score in the test with GST-Ap-NF-kB RHD and 9.87 z-score with GST-Co-NF-kB.

In the case of “CCGATTAACATCAGATTTACCCCTGATGTTAATCGGGTCTTGATTCGCTTGACGCTGCTG”, the binding signal was 3.07 z-score in the test with GST-Ap-NF-kB RHD and 6.39 z-score with GST-Co-NF-kB.

Regarding “CCGATTAACATCAGACTTTTCCCTGATGTTAATCGGGTCTTGATTCGCTTGACGCTGCTG”, the binding signal with GST-Ap-NF-kB RHD was determined as 2.88 z-score; in test [1] it was 4.94 z-score; with GST-Dm-Relish, 1.62 z-score.

In the case of “CCGATTAACATCAAGGTGTTTCCTGATGTTAATCGGGTCTTGATTCGCTTGACGCTGCTG”, the binding signal with GST-Ap-NF-kB RHD was 1.56 z-score; with GST-Co-NF-kB, -0.13 z-score.

As for “CCGATTAACATCAAACTTCCCCCTGATGTTAATCGGGTCTTGATTCGCTTGACGCTGCTG”, the binding signal with GST-Ap-NF-kB RHD was found to be 7.75 z-score; in the test with GST-Co-NF-kB, 9.35 z-score.

Consider “CCGATTAACATCAGGGGATCACCTGATGTTAATCGGGTCTTGATTCGCTTGACGCTGCTG”, for which the figures for the binding signal with GST-Ap-NF-kB RHD and in the test with GST-Co-NF-kB were 7.26 z-score and 2.95 z-score, respectively.

Regarding “CCGATTAACATCAGGGACAGCCCTGATGTTAATCGGGTCTTGATTCGCTTGACGCTGCTG”, the binding signal stood at 3.43 z-score with GST-Ap-NF-kB RHD and 0.0923 z-score with GST-Co-NF-kB.

“CCGATTAACATCAGGGGGTGTACTGATGTTAATCGGGTCTTGATTCGCTTGACGCTGCTG”: the binding signal is 3.65 z-score with GST-Ap-NF-kB RHD and 2.61 z-score with GST-Co-NF-kB.

Regarding “CCGATTAACATCAGGGATCTACCTGATGTTAATCGGGTCTTGATTCGCTTGACGCTGCTG”, the results for the binding signal with GST-Ap-NF-kB RHD and with GST-Co-NF-kB were 3.06 z-score and -0.103 z-score, respectively.

In the case of “CCGATTAACATCAATTCTCCCCCTGATGTTAATCGGGTCTTGATTCGCTTGACGCTGCTG”, the binding signal with GST-Ap-NF-kB RHD was found to be 6.48 z-score; with GST-Co-NF-kB, 10.7 z-score.

As to “CCGATTAACATCACTAGTTTCCCTGATGTTAATCGGGTCTTGATTCGCTTGACGCTGCTG”, the binding signal with GST-Ap-NF-kB RHD turned out to be 3.06 z-score; with GST-Co-NF-kB, 4.16 z-score.

For “CCGATTAACATCAATATTTACCCTGATGTTAATCGGGTCTTGATTCGCTTGACGCTGCTG”, the figures for the binding signal with GST-Ap-NF-kB RHD and with GST-Co-NF-kB were 1.68 z-score and 3.33 z-score, respectively.

Consider “CCGATTAACATCAGGAGGCCCCCTGATGTTAATCGGGTCTTGATTCGCTTGACGCTGCTG”, for which the binding signal was found to be 4.97 z-score with GST-Ap-NF-kB RHD and 0.624 z-score with GST-Co-NF-kB.

“CCGATTAACATCAGGGATTCCAATGATGTTAATCGGGTCTTGATTCGCTTGACGCTGCTG”: the binding signal worked out at 1.68 z-score with GST-Ap-NF-kB RHD and 0.681 z-score in the test with GST-Co-NF-kB.

“CCGATTAACATCACCCCCTCCCCTGATGTTAATCGGGTCTTGATTCGCTTGACGCTGCTG”: the figures for the binding signal with GST-Ap-NF-kB RHD and with GST-Co-NF-kB were 3.75 z-score and 4.75 z-score, respectively.

For the sequence “CCGATTAACATCAAGGAAAAACCTGATGTTAATCGGGTCTTGATTCGCTTGACGCTGCTG”, the binding signal in the test with GST-Ap-NF-kB RHD worked out at 0.231 z-score; with GST-Co-NF-kB it was 0.551 z-score.

On to “CCGATTAACATCACGGTATTTCCTGATGTTAATCGGGTCTTGATTCGCTTGACGCTGCTG”, for which the figures for the binding signal in the test with GST-Ap-NF-kB RHD and in the test with GST-Co-NF-kB were 1.56 z-score and 0.893 z-score, respectively.

For the sequence “CCGATTAACATCACACTTTCCCCTGATGTTAATCGGGTCTTGATTCGCTTGACGCTGCTG”, the binding signal in the test with GST-Ap-NF-kB RHD was 6.32 z-score; with GST-Co-NF-kB it was 7.06 z-score.
